Residue numbers refer to the chain shown, from its start. Some of the results follow.
T1: RBFOX1 RRM (Homo sapiens, UniProt Q9NWB1 109-208)
T1 sequence: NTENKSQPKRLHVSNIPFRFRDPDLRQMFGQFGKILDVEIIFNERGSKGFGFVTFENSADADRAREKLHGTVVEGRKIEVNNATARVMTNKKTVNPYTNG

B1: UGACUCC (DNA:RNA)
RNA: GGGAGACCGGAAUUCAGAUUGUCCUGACUCCUUAAAUCCCGUCGUAGCCACCA
DNA 1: CAATCTGAATTCCGGTCTCCC
DNA 2: TGGTGGCTACGACGGGATT
B2: CUCUAAC (DNA:RNA)
RNA: B1 RNA with U25C, G26U, A27C, C28U, U29A, C30A
DNA 1: CAATCTGAATTCCGGTCTCCC
DNA 2: TGGTGGCTACGACGGGATT
B3: UGCGUUA (DNA:RNA)
RNA: B1 RNA with A27C, C28G, C30U, C31A
DNA 1: CAATCTGAATTCCGGTCTCCC
DNA 2: TGGTGGCTACGACGGGATT
B4: UUUCACG (DNA:RNA)
RNA: B1 RNA with G26U, A27U, U29A, C31G
DNA 1: CAATCTGAATTCCGGTCTCCC
DNA 2: TGGTGGCTACGACGGGATT
B5: UACCCGU (DNA:RNA)
RNA: B1 RNA with G26A, A27C, U29C, C30G, C31U
DNA 1: CAATCTGAATTCCGGTCTCCC
DNA 2: TGGTGGCTACGACGGGATT
B6: AUAUUGC (DNA:RNA)
RNA: B1 RNA with U25A, G26U, C28U, C30G
DNA 1: CAATCTGAATTCCGGTCTCCC
DNA 2: TGGTGGCTACGACGGGATT
B7: AUCUAGU (DNA:RNA)
RNA: GGGAGACCGGAAUUCAGAUUGUCCAUCUAGUUUAAAUCCCGUCGUAGCCACCA
DNA 1: CAATCTGAATTCCGGTCTCCC
DNA 2: TGGTGGCTACGACGGGATT
B8: CCCAGAG (DNA:RNA)
RNA: B7 RNA with A25C, U26C, U28A, A29G, G30A, U31G
DNA 1: CAATCTGAATTCCGGTCTCCC
DNA 2: TGGTGGCTACGACGGGATT
B9: GGUUAUC (DNA:RNA)
RNA: B7 RNA with A25G, U26G, C27U, G30U, U31C
DNA 1: CAATCTGAATTCCGGTCTCCC
DNA 2: TGGTGGCTACGACGGGATT
B10: GCAGCUU (DNA:RNA)
RNA: B7 RNA with A25G, U26C, C27A, U28G, A29C, G30U
DNA 1: CAATCTGAATTCCGGTCTCCC
DNA 2: TGGTGGCTACGACGGGATT
B11: GUGUAGU (DNA:RNA)
RNA: B7 RNA with A25G, C27G
DNA 1: CAATCTGAATTCCGGTCTCCC
DNA 2: TGGTGGCTACGACGGGATT
B12: AACCUAU (DNA:RNA)
RNA: B7 RNA with U26A, U28C, A29U, G30A
DNA 1: CAATCTGAATTCCGGTCTCCC
DNA 2: TGGTGGCTACGACGGGATT
B13: ACCCUCU (DNA:RNA)
RNA: B7 RNA with U26C, U28C, A29U, G30C
DNA 1: CAATCTGAATTCCGGTCTCCC
DNA 2: TGGTGGCTACGACGGGATT
B14: UGCAUAU (DNA:RNA)
RNA: B1 RNA with A27C, C28A, C30A, C31U
DNA 1: CAATCTGAATTCCGGTCTCCC
DNA 2: TGGTGGCTACGACGGGATT
B15: UGGUAUA (DNA:RNA)
RNA: B7 RNA with A25U, U26G, C27G, G30U, U31A
DNA 1: CAATCTGAATTCCGGTCTCCC
DNA 2: TGGTGGCTACGACGGGATT
B16: UAACAGC (DNA:RNA)
RNA: B1 RNA with G26A, U29A, C30G
DNA 1: CAATCTGAATTCCGGTCTCCC
DNA 2: TGGTGGCTACGACGGGATT
B17: GGUGUUA (DNA:RNA)
RNA: B1 RNA with U25G, A27U, C28G, C30U, C31A
DNA 1: CAATCTGAATTCCGGTCTCCC
DNA 2: TGGTGGCTACGACGGGATT
B18: ACGCGAA (DNA:RNA)
RNA: B7 RNA with U26C, C27G, U28C, A29G, G30A, U31A
DNA 1: CAATCTGAATTCCGGTCTCCC
DNA 2: TGGTGGCTACGACGGGATT
B19: UAGAAGA (DNA:RNA)
RNA: B7 RNA with A25U, U26A, C27G, U28A, U31A
DNA 1: CAATCTGAATTCCGGTCTCCC
DNA 2: TGGTGGCTACGACGGGATT
B20: GUACAUU (DNA:RNA)
RNA: B7 RNA with A25G, C27A, U28C, G30U
DNA 1: CAATCTGAATTCCGGTCTCCC
DNA 2: TGGTGGCTACGACGGGATT

These binders were tested against T1, RBFOX1 RRM (assay: EMSA; HiTS-Eq, 1 nM pool, 10 min; buffer printed only for the single-RNA assays: 10 mM Tris pH 7.5, 150 mM NaCl, 3.4 mM EDTA, 0.001% NP-40, 30 C). Settings: tags: His6 N-terminal (pET28a); label: 5' 32P.
In short: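 Purified RbFox RRM (wild type or mutant) was equilibrated for 10 min in 50 µL with 1 nM of a 5′-radiolabelled pool of RNA with 7 randomized nucleotides, its flanks annealed to DNA oligonucleotides, across increasing protein concentrations. Free RNA was separated by 8% native PAGE, excised, reverse-transcribed, PCR-barcoded and sequenced on an Illumina HiSeq 2500. Relative association constants came from read-count changes of each variant against the control reaction, normalised to the cognate motif.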
In the case of B1, the binding signal is reported as 0.0112 KA relative to UGCAUGU.
For B2, the binding signal was 0.00191 KA relative to UGCAUGU.
For B3, the binding signal was 0.0175 KA relative to UGCAUGU.
With B4 the binding signal was 0.0119 KA relative to UGCAUGU.
With B5 the binding signal was 0.004 KA relative to UGCAUGU.
In the case of B6, the binding signal is reported as 0.00731 KA relative to UGCAUGU.
In the case of B7, the binding signal is reported as 0.00514 KA relative to UGCAUGU.
With B8 the binding signal was 0.0137 KA relative to UGCAUGU.
With B9 the binding signal was 0.00774 KA relative to UGCAUGU.
B10 was tested, and the binding signal was 0.013 KA relative to UGCAUGU.
For B11, the binding signal was 0.0123 KA relative to UGCAUGU.
With B12 the binding signal was 0.000214 KA relative to UGCAUGU.
For B13, the binding signal was 0.00404 KA relative to UGCAUGU.
B14 was tested, and the binding signal was 0.0115 KA relative to UGCAUGU.
With B15 the binding signal was 0.0103 KA relative to UGCAUGU.
With B16 the binding signal was 0.00375 KA relative to UGCAUGU.
B17 was tested, and the binding signal was 0.0131 KA relative to UGCAUGU.
B18 was tested, and the binding signal was 0.00567 KA relative to UGCAUGU.
B19 was tested, and the binding signal was 0.00721 KA relative to UGCAUGU.
With B20 the binding signal was 0.00424 KA relative to UGCAUGU.

— publication PMC9911399, “Two distinct binding modes provide the RNA-binding protein RbFox with extraordinary sequence specificity”
